Reference: patent US7592316B2, “Peptides as NS3-serine protease inhibitors of hepatitis C virus” (Schering Corporation, priority 2000, dated 2009)
*1 amine or outer side, *2 acyl side, *3 side chain or, on linkers, in order; H or OH if unused. Where a SMILES comes first, the peptide text is derived from it. [ ]: non-standard residue; d: D form. The star is where a group is joined. Pro(3R,4S-CMe2) = CC1(C)[C@@H]2[C@@H](C(=O)O)NC[C@@H]21; X16 = O=C(C(=O)[*:2])C1(N[*:1])CC1; Chg = N[C@H](C(=O)O)C1CCCCC1; Phg = N[C@H](C(=O)O)c1ccccc1; Boc = CC(C)(C)OC(=O)*

Target: HCV NS3/NS4A protease (strain 1a) (Hepatitis C virus genotype 1a, UniProt P27958)
Assay: biochemical
Settings: Table 5; HCV NS3/NS4A protease, spectrophotometric assay, 30° C., pH 6.5; read-out: Ki* Range

Ki [nM] | Structure (SMILES)
1 to 100 | CCC[C@H](NC(=O)[C@@H]1[C@H]2OC(C)(C)O[C@H]2CN1C(=O)[C@@H](NC(=O)OC(C)(C)C)C(C)(C)C)C(=O)C(=O)NCC(=O)NC(C(=O)N(C)C)c1ccccc1 (some centres unmarked)
101 to 1000 | C=CCC(NC(=O)[C@@H]1[C@@H]2[C@H](CN1C(=O)[C@@H](NC(=O)OC(C)(C)C)C(C)(C)C)C2(C)C)C(=O)C(=O)NCC(=O)Nc1ccccc1 (some centres unmarked)
> 1000 | CC(C)(CO[Si](C)(C)C(C)(C)C)OC(=O)N[C@H](C(=O)N1C[C@H]2[C@@H]([C@H]1C(=O)NC(CC1CC1)C(=O)C(N)=O)C2(C)C)C(C)(C)C (some centres unmarked)
101 to 1000 | C=CCCC(NC(=O)[C@@H]1C2C(CN1C(=O)[C@@H](NC(=O)OC(C)(C)C)C1Cc3ccccc3C1)C2(C)C)C(=O)C(=O)NCCC(=O)OC(C)(C)C (some centres unmarked)
> 1000 | COC(=O)C(=O)C(CC1CCC1)NC(=O)C1C2C(CN1C(=O)[C@@H](NC(=O)NC(C)(C)C)C(C)(C)C)C2(C)C (some centres unmarked)
> 1000 | CC(C)(C)OC(=O)N[C@H](C(=O)N1C[C@H]2[C@@H]([C@H]1C(=O)NC1(C(=O)C(=O)O)CC1)C2(C)C)C(C)(C)C
101 to 1000 | CNC(=O)C(=O)C(CC1CC1)NC(=O)[C@@H]1[C@@H]2[C@H](CN1C(=O)[C@@H](NC(=O)OC(C)(C)C)C(C)(C)C)C2(C)C (some centres unmarked)
> 1000 | C=CCNC(=O)C(=O)C(CCC)NC(=O)[C@@H]1CC(C)(C)CN1C(=O)[C@@H](NC(=O)O[C@H](C)C(C)C)C(C)(C)C (some centres unmarked)
101 to 1000 | CCOC1(OC(=O)N[C@H](C(=O)N2C[C@H]3[C@@H]([C@H]2C(=O)NC(CC2CC2)C(=O)C(N)=O)C3(C)C)C(C)(C)C)CC1 (some centres unmarked)
1 to 100 | CC(C)(C)OC(=O)N[C@H](C(=O)N1C[C@H]2[C@@H]([C@H]1C(=O)NC(CCC(F)(F)F)C(=O)C(N)=O)C2(C)C)C1CCCCC1 (some centres unmarked)
101 to 1000 | C=CCCC(NC(=O)[C@@H]1[C@@H]2[C@H](CN1C(=O)[C@@H](NC(=O)NCC=C)C1CCCCC1)C2(C)C)C(=O)C(=O)NCC=C (some centres unmarked)
> 1000 | COCC(NC(=O)[C@@H]1[C@@H]2[C@H](CN1C(=O)[C@@H](NC(=O)OC(C)(C)C)C(C)(C)C)C2(C)C)C(=O)C(N)=O (some centres unmarked)

Structure (SMILES) | Ki [nM]
CN(C)C(=O)[C@@H](NC(=O)CNC(=O)C(=O)C1(NC(=O)[C@@H]2[C@@H]3[C@H](CN2C(=O)[C@@H](NC(=O)OC(C)(C)C)C2CCCCC2)C3(C)C)CC1)c1ccccc1 (Boc-[Chg][Pro(3R,4S-CMe2)][X16]G[Phg]-NMe2) | > 1000

Same assay, conditions: Table 6; HCV NS3/NS4A protease, 30° C., pH 6.5; read-out: Ki*

Ki [nM] | Structure (SMILES)
101 to 1000 | CC(NC(=O)N[C@H](C(=O)N1C[C@H]2[C@@H]([C@H]1C(=O)NC(CC1CC1)C(=O)C(N)=O)C2(C)C)C1CCCCC1)C(F)(F)F (some centres unmarked)
1 to 100 | CC1(C)C2[C@@H](C(=O)NC(CC3CCC3)C(=O)C(N)=O)N(C(=O)[C@@H](NC(=O)C3OC(=O)c4ccccc43)C3CCCCC3)C[C@@H]21 (some centres unmarked)
1 to 100 | CN(C)C(=O)[C@@H](NC(=O)CNC(=O)C(=O)C(CC1CC1)NC(=O)[C@@H]1[C@H]2CC(C)(C)O[C@H]2CN1C(=O)[C@@H](NC(=O)NC(C)(C)C)C1CCCCC1)c1ccccc1 (some centres unmarked)
1 to 100 | CC(C)(C)OC(=O)N[C@H](C(=O)N1C[C@H]2[C@@H]([C@H]1C(=O)NC(CC1CCC1)C(=O)C(N)=O)C2(Cl)Cl)C1Cc2ccccc2C1 (some centres unmarked)
> 1000 | CC(C)(C)OC(=O)N[C@H](C(=O)N1C[C@H]2[C@@H]([C@H]1C(=O)N[C@H](CC1CCC1)C(=O)C(N)=O)C2(Cl)Cl)C(C)(C)C
> 1000 | CN(C(C)(C)C)S(=O)(=O)CCNC(=O)C(=O)C(CC1CCC1)NC(=O)[C@@H]1[C@@H]2[C@H](CN1C(=O)[C@@H](NC(=O)NC(C)(C)C)C(C)(C)C)C2(C)C (some centres unmarked)
1 to 100 | C#CCCC(NC(=O)[C@@H]1[C@@H]2[C@H](CN1C(=O)[C@@H](NC(=O)NC(C)(C)C)C(C)(C)C)C2(C)C)C(=O)C(=O)NCCC(=O)OC(C)(C)C (some centres unmarked)
101 to 1000 | C=CCNC(=O)C(=O)C(CC1CC1)NC(=O)[C@@H]1[C@@H]2[C@H](CN1C(=O)[C@@H](NC(=O)OC(C)(C)C)C1Cc3ccccc3C1)C2(C)C (some centres unmarked)
1 to 100 | CC(=O)OCC(NC(=O)N[C@H](C(=O)N1C[C@H]2[C@@H]([C@H]1C(=O)NC(CC1CCC1)C(=O)C(N)=O)C2(Cl)Cl)C(C)(C)C)C(C)(C)C (some centres unmarked)

Structure (SMILES) | Ki [nM]
CN(C)C(=O)C(NC(=O)CNC(=O)C(=O)C(CC1CC1)NC(=O)[C@@H]1[C@@H]2[C@H](CN1C(=O)[C@@H](NC(=O)OC(C)(C)C)C(C)(C)C)C2(Cl)Cl)c1ccccc1 (some centres unmarked) | 1 to 100
